Test results from patent publication US20250136696A1 (HARBOUR BIOMED SHANGHAI, published 2025).

Key:
[1] = target: T1, human B7-H7 recombinant protein (human, UniProt Q9UM44 23-344); test: BLI (Octet), antibody captured on AHC sensor, human B7-H7 in solution, 1:1 global fit
T1 construct: also called human B7-H7 protein
T1 sequence (looked up): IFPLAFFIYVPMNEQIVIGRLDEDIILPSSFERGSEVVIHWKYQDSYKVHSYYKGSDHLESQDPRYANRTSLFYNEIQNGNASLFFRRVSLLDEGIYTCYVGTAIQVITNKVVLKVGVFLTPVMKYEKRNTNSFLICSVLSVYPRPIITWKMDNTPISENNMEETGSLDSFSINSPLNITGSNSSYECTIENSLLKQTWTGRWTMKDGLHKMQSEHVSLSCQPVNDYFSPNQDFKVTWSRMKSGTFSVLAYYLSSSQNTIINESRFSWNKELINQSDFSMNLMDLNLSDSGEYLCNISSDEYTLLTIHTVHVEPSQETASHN
Experimental: The binding kinetics between antigen and antibody was analyzed using an Octet Red 96e (Fortebio) molecular interaction analyzer by biolayer interferometry (BLI) technology.
For determining the affinity of antibodies for antigens, the rotary speed of the sensor was set at 1000 rpm. AHC sensors (Fortebio, #18-5060) placed in one column were first equilibrated in a test buffer for 10 minutes, and then used to capture the anti-B7-H7 antibodies at a capture height of 0.7 nm; and after being equilibrated in the buffer for 120 s, the AHC sensors bound to human B7-H7 (concentrations: 50-3.125 nM and 0 nM) with 2-fold gradient dilution for 180 s and dissociated for 300 s. The AHC sensors were finally regenerated by immersing in a 10 mM glycine-hydrochloric acid solution with pH 1.5 to elute the protein bound to the sensors.
For data analysis using Octet Data Analysis software (Fortebio, version 11.0), 0 nM well was used as the reference well, reference subtraction was performed, “1:1 Global fitting” method was selected for data fitting, the kinetic parameters of the binding of the antigen to the antigen-binding protein were calculated, and the kₒₙ (1/Ms) value, kdis (1/s) value and KD (M) value were obtained.

[2] = target: T2, human B7-H7 on the cell surface (human, UniProt Q9UM44 23-414); test: flow cytometry, HEK-293/hu B7-H7 cells
T2 construct: whole, on cells; also called hB7-H7; hu B7-H7
T2 sequence (looked up): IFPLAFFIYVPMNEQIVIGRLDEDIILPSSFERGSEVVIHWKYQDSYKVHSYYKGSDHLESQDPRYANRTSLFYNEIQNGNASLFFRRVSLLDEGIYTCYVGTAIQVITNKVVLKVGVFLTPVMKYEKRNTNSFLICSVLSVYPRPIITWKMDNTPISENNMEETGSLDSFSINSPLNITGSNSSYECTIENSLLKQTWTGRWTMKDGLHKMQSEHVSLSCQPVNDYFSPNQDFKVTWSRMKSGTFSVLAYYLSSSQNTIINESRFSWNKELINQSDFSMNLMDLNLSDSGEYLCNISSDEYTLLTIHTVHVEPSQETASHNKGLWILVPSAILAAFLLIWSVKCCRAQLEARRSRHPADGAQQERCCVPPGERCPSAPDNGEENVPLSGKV
Experimental: (§1) This example was intended to study the in vitro activity of H2L2 monoclonal antibodies against human B7-H7 in binding to human/cynomolgus monkey B7-H7. Since homologous molecules of B7-H7 were not present in mice, the detection was not performed. […] The cells were adjusted to a cell density of 1×10⁶ cells/mL, respectively. The cells were seeded in a 96-well V-bottom plate (Corning, #3894) at 100 μL/well, and the antibody to be tested at 2× final concentration with 3-fold concentration gradient dilution was then added at 100 μL/well. The cells were incubated at 4° C. for 2 hours in the dark. After the incubation, the cells were rinsed twice by adding pre-chilled PBS containing 2% BSA at 100 μl/well, and centrifuged at 500 g at 4° C. for 5 minutes, and the supernatant was discarded. […] The cells were washed twice by adding pre-chilled PBS containing 2% BSA at 100 μL/well, and centrifuged at 500 g at 4° C. for 5 minutes, and the supernatant was discarded. Finally, the cells were resuspended in pre-chilled PBS containing 2% BSA at 200 μL/well, and the fluorescence signal values were read using an ACEA Novocyte3000 flow cytometer.

[3] = target: T2, human B7-H7 on the cell surface; test: flow cytometry, HCC827 cells
Experimental: as §1

[4] = target: T3, biotinylated human B7-H7 protein (Acro Biosystems, B77-H82F5) (human, UniProt Q9UM44 23-344, biotinylated); test: flow cytometry, blocking of biotinylated human B7-H7 binding to HEK-293/CD28H cells
T3 construct: Bought soluble protein; also called biotin-B7H7 protein
T3 sequence (looked up): T1 sequence (looked up)
Experimental: This example was intended to study the in vitro blocking activity of human anti-B7-H7 antibodies against the binding of human B7-H7 to its receptor CD28H. […] The cells were adjusted to a cell density of 1×10⁶ cells/mL. […] The cells were incubated at 4° C. for 1 hour in the dark. […] The cells were rinsed twice by adding pre-chilled PBS containing 2% BSA at 100 μL/well, and were centrifuged at 500 g at 4° C. for 5 minutes, and the supernatant was discarded. A fluorescent secondary antibody (PE Streptavidin, BD, Cat #: 554061, 1:200) was added at 100 μL/well, and the cells were incubated at 4° C. for 30 minutes in the dark. The cells were washed twice by adding pre-chilled PBS at 200 μL/well, and centrifuged at 500 g at 4° C. for 5 minutes, and the supernatant was discarded. Finally, the cells were resuspended in pre-chilled PBS at 200 μL/well, and the fluorescence signal values were read using an ACEA Novocyte3000 flow cytometer. IC50 was calculated.

B1: PR003259 (antibody, human IgG1, kappa)
heavy: QVQLVESGGGVVQPGRSLRLSCAASGFTFSNYGMHWVRQVPGKGLEWVAVIWYDGSEKDYADSVKGRFTISRDNSKNTLYLQMNSLRVEDTAVYYCAKDLISGIYYVDHWGQGTLVTVSS[not shown - human IgG1 constant region]
light: DIQMTQSPSSLSASVGDRVTITCRASQGISNYLAWYQQKPGKVPKLLIYAASTLQSGVPSRFSGSGSGTDFTLTISSLQPEDVATYYCQKYNSAPFTFGPGTKVDIKRTVAAPSVFIFPPSDEQLKSGTASVVCLLNNFYPREAKVQWKVDNALQSGNSQESVTEQDSKDSTYSLSSTLTLSKADYEKHKVYACEVTHQGLSSPVTKSFNRGEC
notes: Human IgG1; also called 68F3A2
Kd [1]: 1.64 nM
koff [1]: 0.000124 s⁻¹
kon [1]: 75300 M⁻¹ s⁻¹
EC50 [2]: 0.945 nM
Maximum MFI [2]: 808000 MFI
Maximum MFI [3]: 68200 MFI
IC50 [4]: 1.43 nM
Maximum inhibition rate (%) [4]: 101%
